Measurements as given in paper PMC4336329 (PLoS ONE, 2015).
The whole screen tested about 310,000 compounds, of which about 14,000 (4.5%) showed an effect of 50% or more. Effects have a minus sign here. Some of the results follow.

target: human ether-à-go-go-related gene (hERG) potassium channel (human, UniProt Q12809); test: primary screen, population patch clamp on CHO cells stably expressing hERG
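Further: peak tail current of the secondary pulse compared with the same well before compound.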

Chain of human ether-à-go-go-related gene (hERG) potassium channel (Q12809 whole entry, looked up): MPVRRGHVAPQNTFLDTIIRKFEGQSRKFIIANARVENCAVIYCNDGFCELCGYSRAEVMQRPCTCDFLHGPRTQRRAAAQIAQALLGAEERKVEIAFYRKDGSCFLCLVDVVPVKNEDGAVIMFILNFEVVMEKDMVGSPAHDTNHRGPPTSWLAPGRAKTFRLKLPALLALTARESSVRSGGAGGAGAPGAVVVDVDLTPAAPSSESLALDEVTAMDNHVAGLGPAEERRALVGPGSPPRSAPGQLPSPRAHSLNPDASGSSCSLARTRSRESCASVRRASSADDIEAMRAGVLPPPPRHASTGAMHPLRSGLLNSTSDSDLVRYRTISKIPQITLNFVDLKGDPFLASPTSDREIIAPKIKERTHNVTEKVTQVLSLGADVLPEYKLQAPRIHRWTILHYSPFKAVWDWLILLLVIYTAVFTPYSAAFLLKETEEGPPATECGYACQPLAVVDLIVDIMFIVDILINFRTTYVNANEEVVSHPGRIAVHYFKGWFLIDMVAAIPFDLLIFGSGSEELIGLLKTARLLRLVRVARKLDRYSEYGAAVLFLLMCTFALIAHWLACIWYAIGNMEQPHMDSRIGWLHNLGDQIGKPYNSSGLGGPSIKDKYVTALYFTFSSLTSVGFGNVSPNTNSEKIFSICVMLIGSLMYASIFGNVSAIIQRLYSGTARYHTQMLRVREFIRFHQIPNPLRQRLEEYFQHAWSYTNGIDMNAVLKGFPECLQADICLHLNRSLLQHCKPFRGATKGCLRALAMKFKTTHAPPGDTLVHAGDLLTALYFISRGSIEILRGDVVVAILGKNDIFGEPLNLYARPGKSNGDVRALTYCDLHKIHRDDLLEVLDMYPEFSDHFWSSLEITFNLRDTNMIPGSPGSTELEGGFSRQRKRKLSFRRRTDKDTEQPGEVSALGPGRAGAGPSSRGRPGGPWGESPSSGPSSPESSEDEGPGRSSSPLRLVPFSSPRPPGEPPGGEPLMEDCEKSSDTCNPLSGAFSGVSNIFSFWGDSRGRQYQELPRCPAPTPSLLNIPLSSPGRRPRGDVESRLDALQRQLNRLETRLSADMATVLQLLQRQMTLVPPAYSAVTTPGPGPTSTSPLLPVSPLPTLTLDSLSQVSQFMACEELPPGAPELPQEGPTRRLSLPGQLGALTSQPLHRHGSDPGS

Structure (SMILES) | hERG current change (%, negative = inhibition) at 10uM [%]
Cc1cc(NC(=O)CCC(=O)N(c2ccc(F)cc2)C2(C(=O)NC3CCCCC3)CCCC2)no1 | 2.27
O=C(/C=C/c1c(F)cccc1Cl)N1CCOCC1 | 15.6
CC(=O)Nc1ccc(CC(=O)NCCC(c2ccccc2)c2ccccc2)cc1 | 13.7
CC(NC(=O)Cn1cc(Br)c([N+](=O)[O-])n1)c1ccccc1 (stereo not drawn) | 11.1
CC(=O)c1cccc(N(CC(=O)Nc2cc(C)cc(C)c2)S(C)(=O)=O)c1 | 13.3
O=C(C1CCN(S(=O)(=O)c2ccc(-n3cnnn3)cc2)CC1)N1CCN(c2ccccc2)CC1 | -35.7
CC1(C)NC(=O)N(CCOCCOc2ccc3ccccc3c2Br)C1=O | -8.87
O=[N+]([O-])c1ccc2oc(C(O)c3cccc(Cl)c3)cc2c1 (stereo not drawn) | -21.4
CCOc1ncccc1C(=O)Nc1ccc(-c2ccc3nnc(C)n3n2)cc1 | 19.6
CCc1ccc(-c2cn3c(n2)SCC3)cc1 | 4.12
COc1ccc(S(=O)(=O)Nc2cc(C(=O)NCCCN3CCOCC3)ccc2N2CCOCC2)cc1 | 25
COc1nc(NS(=O)(=O)c2ccc(C)cc2)nc(C)c1Cl | 4.82
Cc1sc2nc(CN3CCOCC3)nc(NCCc3ccccc3)c2c1C | -30
O=C(Nc1ccccc1)N1CCN(c2ncccn2)CC1 | 8.36
N/C(CC(=O)NCCOc1ccccc1)=N\O | -10.9
COc1ccc(OC)c(-c2cc(C(=O)N/N=C/c3cc(OC)c(OC)cc3OC)c3ccccc3n2)c1 | 0.0881
COc1cccc(C(=O)Nc2ccccc2C(=O)N2CCCC2)c1 | -2.5
COc1ccc(CCNC(=O)CSc2nc3[nH]ncc3c(=O)n2-c2cccc(C(F)(F)F)c2)cc1OC | 44.3
Cc1ccc(C)n1-c1ccc(C(=O)N2CCOCC2)cc1 | 19.5
CCOC(=O)C1(Cc2cccc(F)c2)CCN(C(=O)C2CCC2)CC1 | -24
N=c1c(-c2nc3ccccc3[nH]2)cc(C(=O)c2cccs2)nn1-c1ccccc1 | -50.2

Structure (SMILES) | hERG current change (%, negative = inhibition) at 10uM [%]
O=C1ON=C(c2ccccc2[N+](=O)[O-])/C1=C/c1cccc([N+](=O)[O-])c1O | 11.1
CCOc1[nH]n(-c2ccccc2)c(=O)c1C=Nc1ccc(C)cc1 | -18.1
COc1ccc(-c2csc3ncnc(Oc4ccc5c(C)cc(=O)oc5c4)c23)cc1 | 12.6
CCC(C(=O)N1CCc2cc(OC)c(OC)cc2C1)c1ccccc1 (stereo not drawn) | 12.6
CC(C)(C)c1nnc(NC(=O)c2cc(-c3ccccc3)nc3ccccc23)s1 | 17.3
FC(F)Sc1ccc(N=C2NN=C(c3ccc4c(c3)OCCO4)CS2)cc1 | -6.91
Cc1cc2ccccn2c1C(=O)Nc1cccc(Cl)c1 | 41.1
COc1ccc(C2=NN(C(=O)CN3CCOCC3)C(c3nc4ccccc4[nH]3)C2)cc1 (stereo not drawn) | -8.74
CCOc1ccccc1NC(=O)C(CC)Sc1nc2ccncc2[nH]1 (stereo not drawn) | 3.92
CCOC(=O)N1CCN(C(=O)c2ccc3c(=O)n(-c4cc(OC)ccc4OC)c(=S)[nH]c3c2)CC1 | 31.8
Cc1cccc(NC(=O)c2cccc(N3C(=O)C4C5CCC(C5)C4C3=O)c2)c1C (stereo not drawn) | -7.75
CCOC(=O)CSc1nc(-c2ccncc2)ccc1C#N | -61.6
CCOC(=O)c1ccc2c(c1)NC(=O)C(N1CCN(c3ccc(OC)cc3)CC1)S2 (stereo not drawn) | 7.24
Cc1ccc(C(c2nnnn2CC2CCCO2)N2CCN(C(=O)c3ccco3)CC2)cc1 (stereo not drawn) | -4.13
Nc1c(N(Cc2ccco2)C(=O)COc2ccccc2Cl)c(=O)[nH]c(=O)n1Cc1ccccc1 | 2.98
Cc1nn(Cc2ccc(C(=O)N3N=C(C(F)F)CC3(O)C(F)F)o2)c(C)c1[N+](=O)[O-] (stereo not drawn) | -37.3
O=S(=O)([N-]c1nc2ccccc2nc1-[n+]1ccc(-c2ccncc2)cc1)c1ccccc1 | 5.07
CC1(C)Oc2ccc3ccc(=O)oc3c2-c2cnoc21 | 14.1
O=C(c1ccco1)N1CCN(Cc2cccc(F)c2)CC1 | -0.928
CCCCn1c(N)c(N(CC(C)C)C(=O)CSc2ccccc2C)c(=O)[nH]c1=O | 1.8
COc1ccc2c(c1)C(=O)N(c1ccc(C)cc1C)C(=O)C2(C)C | 1.59

Structure (SMILES) | hERG current change (%, negative = inhibition) at 10uM [%]
O=C(CCS(=O)(=O)c1ccc(Br)cc1)Nc1ccc2c(c1)OCO2 | 0.695
C=CCn1c(SCC(=O)Nc2ccc(N3CCOCC3)cc2)nnc1-c1ccco1 | 2.29
O=C(C(=O)N1CCN(c2ccccc2F)CC1)c1cn(CC(=O)N2CCOCC2)c2ccccc12 | 2.51
CC1CCN(C(c2ccc(N(C)C)cc2)c2nnnn2Cc2ccccc2)CC1 (stereo not drawn) | -2.22
O=C(O)CCC(=O)NNc1nc2ccccc2nc1-c1ccccc1 | 9.41
COc1ccc(CNC(=O)C2CCN(c3nnc(N4CCCC4=O)s3)CC2)cc1 | -5.05
CCCCN(CCCC)S(=O)(=O)c1ccc(NC(=O)c2ccc([N+](=O)[O-])cc2Cl)cc1 | 20.7
Cc1ccccc1OCCCn1c(=O)sc2ccccc21 | 21.4
Cc1ccccc1-n1c(C)nnc1SCC(=O)N1CCc2ccccc2C1 | -5.79
COc1ccc(OCC(=O)NC2CC(C)(C)NC(C)(C)C2)cc1 | 12
O=C(CSCc1ccc(Cl)cc1)Nc1cc([N+](=O)[O-])ccc1O | 16.9
O=C(/C(=C(\[O-])c1ccccc1)[n+]1ccc2ccccc2c1)c1ccc(Cl)cc1 | 8.46
O=C(CCC1CCCN(C(=O)C2(c3ccccc3)CC2)C1)N1CCN(c2ccccn2)CC1 (stereo not drawn) | -20.6
O=C(/C=C/c1ccccc1)NC(NC(=S)Nc1ccc(C(=O)O)cc1)C(Cl)(Cl)Cl (stereo not drawn) | 23.5
CCC1CCCCN1C(=O)Cn1c(=O)n(CCC(=O)NCc2ccco2)c(=O)c2sccc21 (stereo not drawn) | -6.12
CCCNC(=O)c1ccccc1NC(=O)CSCc1ccc(OC)cc1 | 25.7
CCOc1ccccc1/C=C(/NC(=O)c1ccccc1)C(=O)N1CCCCC1 | -12.2
Cc1ccc(CSCCNC(=O)/C=C/c2ccc(Cl)cc2)cc1 | -1.94
CCOc1ccc(NC(=O)CCNC(=O)c2ccc(Br)cc2)cc1 | 7.86
O=C(Nc1ccc2c(c1)OCCO2)N1CCN(Cc2ccccc2)CC1 | 5.57
CC(=O)Nc1ccc(S(=O)(=O)NCCc2ccccn2)cc1 | 12.5

Structure (SMILES) | hERG current change (%, negative = inhibition) at 10uM [%]
COc1ccc2c(COC(=O)c3n[nH]c4ccccc34)cc(=O)oc2c1 | -1.8
Cc1ccc(NC(=O)[C@H](NC(=O)[C@@H]2Cc3ccccc3CN2)c2ccccc2)c(C)c1 | -60.7
CN1CCN(C(=O)c2ccc3c(c2)NC(=O)/C(=C/c2ccccc2)S3)CC1 | -16
O=C(CNC(=O)C1CCCCC1)NC1=NCCS1 | 18.6
CCCCC(=O)Nc1ccc(C(=O)NNC(=O)CCCOc2ccc(Cl)cc2Cl)cc1 | 7.25
COC(=O)C(Cc1ccc(OC(=O)c2ccccc2C)cc1)N1Cc2ccccc2C1=O (stereo not drawn) | 1.91
Cc1ncc([N+](=O)[O-])n1CCOC(=O)c1ccc(Br)cc1 | -35.5
CCN(CC(=O)NCc1cccs1)C(=O)c1cccc(S(=O)(=O)Nc2cccc(C)c2)c1 | -38.4
Cc1ccc2c(c1)c1c(n2CC(O)CNC2CCCC2)CCCC1.O=C(O)C(=O)O (stereo not drawn) | -13.1
CC1(C)Cc2[nH]c3ccccc3c2C(C)(C)N1.Cl | 15.3
[Cl-].c1ccc(C[n+]2c(-c3ccccc3)csc2Nc2ccccc2)cc1 | 19.6
COc1ccc(OC)c(CN2CCCC(CCC(=O)N(C)CCc3ccccn3)C2)c1 (stereo not drawn) | -22.3
O=C(C1CCCN(S(=O)(=O)c2ccc(Br)cc2)C1)N1CCOCC1 (stereo not drawn) | -13.8
Cc1ccc(-n2ncc3c2CC(C)(C)CC3NC(=O)CCCN2CCCC2=O)cc1 (stereo not drawn) | -1.21
COC(=O)[C@H](CC(C)C)NC(=O)NCCCc1ccccc1 | 1.82
N#CCCn1[nH]c(-c2ccccc2)cc1=O | 5.16
COc1cc(C)ccc1OCc1cc(C(=O)N2CCC(c3ccc(F)cc3)C2)no1 (stereo not drawn) | -2.19
CC(=O)Nc1cccc(NC(=O)C2CCCN2C(=O)Nc2cccc(F)c2)c1 (stereo not drawn) | 12.5
CCOC(=O)c1ccc(N2Cc3ccccc3C2)cc1O | 3.14
CCCC(C(=O)NC1CCCC1)N(Cc1ccccc1)C(=O)c1snc(C(N)=O)c1N (stereo not drawn) | -29.5
Cc1cc(Oc2ccc(C(F)(F)F)cc2[N+](=O)[O-])c2c3c(c(=O)oc2c1)CCCC3 | 6.59
